Results published in PubChem BioAssay AID686971 (National Center for Advancing Translational Sciences (NCATS), 2013).
The whole screen tested about 360,000 compounds, of which about 7,500 (2.1%) were called active. This list was built around the results that the source calls inconclusive (neither active nor inactive); the mix of calls is not that of the screen. Calls come from the whole dose curve; as a rule, active = well fitted cell-killing curve with a large enough effect; inconclusive = small, poorly fitted or top-dose-only effect, or effect the other way, or another doubt; inactive = no such curve, though single readings can be large or run the other way. No potency is given beside an inconclusive call; the fits are too rough.

Assay: qHTS for induction of synthetic lethality in tumor cells producing 2HG: qHTS for the HT-1080-IDH1KD cell line;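 for activity, negative = toxicity: 0% = DMSO wells and -100% = cell-free medium wells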
Conditions: HT-1080 IDH1 knockdown viability, ATP luminescence, 48 h; activity, negative = toxicity: at 46.1 µM (top of the series) unless noted
Summary of the method: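 In this qHTS, HT-1080 cells depleted of IDH1 are exposed for 48 h at 37 °C to compound titrations. Toxicity is scored from CellTiter-Glo luminescence, with DMSO as full viability and medium alone as none.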
Potency is the fitted concentration of half-maximal effect; tags give direction and shape of the fitted curve.

With O=C(c1cccc(Cl)c1)C1CCCN(Cc2ccc(N3CCNC3=O)cc2)C1 (stereo not drawn) as the compound, how does the Potency read?
The Potency was inconclusive [cytotoxic, single point].

For CCCCn1c(O)c2n(c1=O)Cc1ccccc1N=C2c1ccc(C)cc1, which “activity, negative = toxicity” value is on record?
The value was inactive: -2.59%.

With CC(CCc1ccc(O)cc1)NCCc1ccc(O)c(O)c1 (stereo not drawn) as the compound, how does the Potency read?
The Potency was inconclusive [cytotoxic, single point].

With COCC1CCN(Cc2cn(Cc3ccccc3)nc2-c2cc3ccccc3o2)CC1 as the compound, how does the Potency read?
Its Potency is inconclusive [cytotoxic, partial curve, poor fit].

With CCc1cc(-c2n[nH]c(=S)n2-c2ccccc2C)cs1 as the compound, how does the Potency read?
Its Potency is inconclusive [cytotoxic, partial curve].

For CC(C)S(=O)(=O)c1csc(NC(=O)Nc2cc(Cl)ccc2Cl)c1Cl, which “activity, negative = toxicity” value is on record?
The value was inactive: -0.393%.

With CC(=O)C1=CCC(c2cccc(Cl)c2)N(S(=O)(=O)c2ccc(C)cc2)C1 (stereo not drawn) as the compound, how does the Potency read?
Its Potency is active: 14.6 µM.

With COC(=O)c1ccc2c(c1)C(C)(C)C(/C=C/c1ccccc1O)=[N+]2C as the compound, how does the Potency read?
Its Potency is active: 3.55 µM.

Which Potency does the source give for CN1CCN(c2ccc(-c3cc(NC=O)c4ncc(-c5ccccc5)n4c3)cc2)CC1 here?
Its Potency is inconclusive [cytotoxic, single point].

Which Potency does the source give for Nc1ccc(N=Nc2ccccc2O)c(N)c1 here?
The Potency was inconclusive [cytotoxic, partial curve].

Which Potency does the source give for CC(=O)Nc1cccc(-c2ccnc3c2CC(C(=O)NCCC(F)(F)F)O3)c1 (stereo not drawn) here?
The Potency was active: 20.6 µM.

For CCCCn1c(NCc2ccc(N(C)C)cc2)nc2ccccc21, which “activity, negative = toxicity” value is on record?
Its value is inactive: -19.3%.

Which “activity, negative = toxicity” value does the source give for COc1ccccc1CN1C[C@@H]2C[C@@H](c3cccc(C)c3)N3CCC[C@@]23C1=O here?
Its value is inactive: -0.623%.

Which Potency does the source give for COc1ccccc1NC1=NC(c2ccc(Cl)cc2)N=C(N)N1 (stereo not drawn) here?
Its Potency is active: 5.62 µM.

With O=C(Nc1cccc(Cl)c1)ON=C1c2ccccc2-c2ccccc21 as the compound, how does the Potency read?
The Potency was inconclusive [cytotoxic, single point].

For Cc1nc(-n2[nH]c3c(c2=O)CCCC3)[nH]c(=O)c1Cc1ccccc1, which Potency is on record?
The Potency was inconclusive [cytotoxic, partial curve].

With CCOC(=O)c1ccc(-n2[nH]c(-c3ccccc3)cc2=O)cc1 as the compound, how does the Potency read?
The Potency was inconclusive [cytotoxic, single point].

With O=C(NCC(=O)N1CCN(c2ccccc2O)CC1)c1ccc(Br)o1 as the compound, how does the Potency read?
Its Potency is inconclusive [cytotoxic, partial curve].

With CCC(C)NCCOCCOc1ccc(Br)cc1 (stereo not drawn) as the compound, how does the “activity, negative = toxicity” value read?
Its value is inactive: -1.29%.

With O=C(NCCC1CCCCN1S(=O)(=O)c1ccccc1)C(=O)NCc1ccccc1F (stereo not drawn) as the compound, how does the “activity, negative = toxicity” value read?
The value was inactive: -7.04%.

Which Potency does the source give for Cc1cccc2nc(-c3cccnc3)c(NCCC(C)C)n12 here?
The Potency was inconclusive [cytotoxic, single point].

For COc1cc(C(=O)NC(=S)Nc2cccc3nc(C)ccc23)cc(OC)c1OC, which Potency is on record?
The Potency was inconclusive [cytotoxic, full curve].

With CC1CCCCN1CC(=O)Nc1sc2c(c1C#N)CCC2 (stereo not drawn) as the compound, how does the “activity, negative = toxicity” value read?
The value was inactive: 12.3%.

With CC(=O)Nc1ccc(Cl)cc1C1COC(=O)C1=N (stereo not drawn) as the compound, how does the “activity, negative = toxicity” value read?
Its value is inactive: 15.8%.

Which “activity, negative = toxicity” value does the source give for CCN(CC)S(=O)(=O)c1ccc2c(c1)nc(SCC(N)=O)n2-c1ccc(OC)cc1 here?
The value was inactive: -7%.

With Cc1cc(SC(C)C(=O)Nc2ncc(Cl)cc2Cl)nc2ccccc12 (stereo not drawn) as the compound, how does the “activity, negative = toxicity” value read?
The value was inactive: -5.17%.

Which Potency does the source give for CC(=O)c1cccc(NC(=O)COC(=O)c2ccc(S(C)(=O)=O)c([N+](=O)[O-])c2)c1 here?
Its Potency is inconclusive [cytotoxic, single point].

With O=C(C(=O)N1CCN(c2ccc([N+](=O)[O-])cc2)CC1)c1cn(CC(=O)N2CCOCC2)c2ccccc12 as the compound, how does the “activity, negative = toxicity” value read?
Its value is inactive: -0.806%.

With Cc1ccccc1C(=O)Nc1ccc2c(c1)CCCN2C(=O)c1cccs1 as the compound, how does the Potency read?
The Potency was inconclusive [cytotoxic, partial curve].

For Cc1ccc(NC(=O)CSC(C)C(=O)OCC(=O)N2CCN(C(=O)c3ccco3)CC2)cc1 (stereo not drawn), which “activity, negative = toxicity” value is on record?
Its value is inactive: -9.87%.

For CCn1nc(C)cc1C(=O)NC1CCCc2c1cnn2-c1ccc(C)c(C)c1 (stereo not drawn), which Potency is on record?
Its Potency is inconclusive [cytotoxic, single point].

Which Potency does the source give for CCCCCCCCCCn1ccc(=N)cc1 here?
Its Potency is active: 10.3 µM.

For O=C(c1cccc(S(=O)(=O)N2CCCC2)c1)N1CCN(c2ccccc2)CC1, which Potency is on record?
Its Potency is inconclusive [cytotoxic, single point].

With CCC(C)c1ccc(NC(=O)C2=CC=CN3CCS(=O)(=O)N=C23)cc1 (stereo not drawn) as the compound, how does the “activity, negative = toxicity” value read?
Its value is inactive: -2.12%.

For Cc1ccc(CN2C(=O)C(C)Nc3ncnc(N4CCN(c5ccccn5)CC4)c32)cc1 (stereo not drawn), which “activity, negative = toxicity” value is on record?
The value was inactive: -14.4%.

With CC(C)(C)c1cc(C(C)(C)C)cc(S(=O)(=O)CCc2ccccn2)c1 as the compound, how does the Potency read?
Its Potency is inconclusive [cytotoxic, single point].

Which Potency does the source give for Cc1cccc(OCCOC(=O)c2c(-c3ccccc3)noc2C)c1 here?
The Potency was inconclusive [cytotoxic, partial curve].

For Cc1cccc(C(=O)N[C@H](C(=O)Nc2nc3ccc(S(C)(=O)=O)cc3s2)C(C)C)c1, which Potency is on record?
Its Potency is inconclusive [cytotoxic, partial curve, poor fit].

For NC(CSC(c1ccccc1)(c1ccccc1)c1cccc2ccccc12)C(=O)O (stereo not drawn), which Potency is on record?
The Potency was inconclusive [rising, partial curve].

Which Potency does the source give for O=C(CNc1cccc(S(=O)(=O)N2CCCCCC2)c1)Nc1cccc([N+](=O)[O-])c1 here?
The Potency was inconclusive [cytotoxic, partial curve].

With COc1ccccc1-c1cc(C(F)(F)F)nc(S(C)(=O)=O)n1 as the compound, how does the Potency read?
Its Potency is active: 18.4 µM.

For COc1ccc(C2CC(c3ccccc3)=NN2c2ccc(S(N)(=O)=O)cc2)cc1OC (stereo not drawn), which Potency is on record?
Its Potency is inconclusive [cytotoxic, single point].

For O=C1CCC(c2ccccc2)=NN1, which “activity, negative = toxicity” value is on record?
Its value is inactive: 22%.

With CCC(=O)Nc1nonc1-c1nc2ccccc2n1Cc1ccccc1 as the compound, how does the Potency read?
The Potency was inconclusive [cytotoxic, partial curve].

With CCN1CCCc2cc(CN(CCN3CCOCC3)C(=S)Nc3cccc(Cl)c3)ccc21 as the compound, how does the “activity, negative = toxicity” value read?
The value was inactive: -20.8%.

Which Potency does the source give for O=C(Nc1cccc(Br)c1)c1ccc(CN2CCc3ccccc3C2)cc1 here?
The Potency was inconclusive [cytotoxic, single point].

With Cc1ccccc1C(c1ncccc1C)N(C)C(=O)C1CCN(CCOc2ccc(Cl)cc2Cl)CC1 (stereo not drawn) as the compound, how does the Potency read?
The Potency was active: 23.1 µM.

Which Potency does the source give for COc1cccc(/C=N/NC(=O)C(=O)Nc2ccccc2OC(F)(F)C(F)F)c1O here?
Its Potency is inconclusive [cytotoxic, full curve].

With COc1ccc(C(=O)/C=C/Nc2ccc(NC(C)=O)cc2)cc1OC as the compound, how does the Potency read?
Its Potency is inconclusive [cytotoxic, single point].

With O=C(O)/C=C/C(=O)c1ccc2c(c1)CCc1ccccc1-2 as the compound, how does the Potency read?
Its Potency is inconclusive [cytotoxic, single point].

Which Potency does the source give for CS(=O)(=O)c1nc(-c2ccc(Br)cc2)cc(-c2ccccc2)c1C#N here?
The Potency was inconclusive [cytotoxic, single point].

With CCOC(=O)c1cc(CC)sc1NC(=O)C1CC(=O)NN1Cc1ccccc1 (stereo not drawn) as the compound, how does the Potency read?
The Potency was active: 20.6 µM.

For Cc1ccc(NC(=O)CS(=O)CC(=O)Nc2ccc(N3CCOCC3)cc2)cc1Cl (stereo not drawn), which “activity, negative = toxicity” value is on record?
Its value is inactive: -24.5%.

With CC(=O)Cn1cnc2scc(-c3ccc(C)c(C)c3)c2c1=O as the compound, how does the Potency read?
The Potency was inconclusive [cytotoxic, partial curve, poor fit].

Which “activity, negative = toxicity” value does the source give for O=c1/c(=C/c2ccc(O)c([N+](=O)[O-])c2)sc2nc3ccccc3n12 here?
Its value is inactive: 2.25%.

With Cc1ccc(CN2CC(N3CCC(Cc4ccccc4)CC3)CS2(=O)=O)cc1 (stereo not drawn) as the compound, how does the Potency read?
Its Potency is inconclusive [cytotoxic, single point].

For COc1ccccc1N(CC(=O)NCCN1CCOCC1)S(=O)(=O)c1ccccc1, which “activity, negative = toxicity” value is on record?
Its value is inactive: 7.44%.

Which Potency does the source give for Cc1cccc(-n2ncc3c(NCc4ccccc4)ncnc32)c1 here?
Its Potency is active: 18.4 µM.

For Cc1cc(N/N=C/c2ccccc2Cl)nc(NCc2ccccc2)n1, which Potency is on record?
Its Potency is inconclusive [cytotoxic, single point].

With C=CCc1c(OC)ccc2c1c(S(=O)(=O)c1ccc(C)cc1)cn2COC as the compound, how does the “activity, negative = toxicity” value read?
Its value is inactive: -16.1%.

With COc1ccc(S(=O)(=O)N(C(C)=O)c2ccc(OC(C)=O)c3ccccc23)cc1[N+](=O)[O-] as the compound, how does the Potency read?
The Potency was inconclusive [cytotoxic, single point].

For CN(C)C(=O)COC(=O)c1ccc(S(=O)(=O)NCc2ccco2)cc1, which Potency is on record?
The Potency was inconclusive [rising, single point].

Which “activity, negative = toxicity” value does the source give for Cc1c(/C=N/O)sc2ccccc12 here?
Its value is inactive: 15.7%.

For COc1ccccc1N1CCN(C(=O)c2cc3cc(C)ccc3[nH]2)CC1, which Potency is on record?
Its Potency is inconclusive [cytotoxic, single point].

Which Potency does the source give for O=C(CCN1C(=O)/C(=C/c2ccccc2)SC1=S)NCCc1ccc(O)cc1 here?
The Potency was inconclusive [cytotoxic, single point].

With CCOc1ccc(Nc2cc(C)nc(-n3nc(C)cc3C)n2)cc1 as the compound, how does the Potency read?
The Potency was active: 0.411 µM.

Which “activity, negative = toxicity” value does the source give for CC(C)(CN=C1NS(=O)(=O)c2ccccc21)CNC(=O)c1ccccc1 here?
Its value is inactive: 2.68%.

Which Potency does the source give for Cc1ccc2c(c1)[C@H]1[C@H](CO2)[C@H](c2ccccc2)[C@]2(C)C(=O)Nc3cc(Cl)ccc3C(=O)N12 here?
Its Potency is inconclusive [cytotoxic, single point].

Which “activity, negative = toxicity” value does the source give for C[C@@H]1CCCCO[C@@H](CN(C)C(=O)c2ccncc2)[C@@H](C)CN([C@H](C)CO)C(=O)c2cc(NC(=O)Cc3ccccc3)ccc2O1 here?
The value was inactive: 0.509%.

With O=C(N/N=C/c1ccc([N+](=O)[O-])cc1)c1cc(C2CC2)nc2ccccc12 as the compound, how does the Potency read?
The Potency was active: 23.1 µM.

Which activity, negative = toxicity does the source give for O=C(Nc1nnc(-c2ccco2)o1)c1ccc(N2C(=O)CCC2=O)cc1 here?
The activity, negative = toxicity was inconclusive: 30.5%.

With CCN(CC)CCOC(=O)c1ccc(NC(=O)CCCN2C(=O)S/C(=C/c3ccc(OC)cc3)C2=S)cc1 as the compound, how does the Potency read?
Its Potency is active: 11.6 µM.

Which Potency does the source give for OCC1(CCOc2ccccc2)CCN(Cc2cn[nH]c2-c2ccc(F)cc2)CC1 here?
The Potency was active: 23.1 µM.
